Measured values taken from PubChem BioAssay AID1240 (Sanford-Burnham Center for Chemical Genomics, 2008).
Among all 50,000 compounds or so, about 800 (1.6%) showed an effect of 50% or more. Some of the results follow.

These compounds were tested against Bcl-2-like protein 10 (Homo sapiens) (UniProt Q9HD36) (assay: TR3 peptide-Bcl-B binding displacers, biochemical primary FP assay, phenotype converters (AID 1240;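 note: 0% = Bcl-B with tracer peptide and DMSO and 100% = tracer peptide lacking Bcl-B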)). Conditions: GST-Bcl-B / FITC-TR3 peptide fluorescence polarization; stronger effect = higher value; compound at 3.75 mg/L.
UniProt Q9HD36, sequence (Q9HD36 whole entry, looked up): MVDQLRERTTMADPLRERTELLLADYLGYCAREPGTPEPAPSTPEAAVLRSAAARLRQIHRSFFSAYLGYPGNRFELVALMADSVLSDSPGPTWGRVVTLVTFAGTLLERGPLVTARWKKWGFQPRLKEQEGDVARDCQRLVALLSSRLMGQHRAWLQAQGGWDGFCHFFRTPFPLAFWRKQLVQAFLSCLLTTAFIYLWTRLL
`Cc1ccc(-c2cc(NC(=O)c3ccc(Cl)cc3)n[nH]2)cc1` gave a displacement of 0.9%.
`O=C(Nc1ccc(Cl)cc1)C(c1ccccc1)c1ccccc1` was tested, and the displacement was -2.7%.
For `COc1ccccc1OCCCCOc1ccc(Cl)c(C)c1`, the displacement was 15.9%.
`CCOC(=O)C1=C(C)NC(=S)NC1c1ccc(O)cc1` (stereo not given) was tested, and the displacement was 0%.
With `S=C(c1ccc(-c2ccc(Cl)c(Cl)c2)o1)N1CCCCC1` the displacement was 11.8%.
Work on `O=C(/C=C/c1ccc2c(c1)OCO2)c1ccc(I)cc1` yielded a displacement of 6.2%.
Compound `COc1ccc(/C=C2/C(C)=C(C#N)c3nc(N)c(C#N)c(C)c32)cc1Br` has a displacement of 12.9%.
With `CCOc1cc(OCC)cc(C(=O)Nc2cc(C)ccc2C)c1` the displacement was 1.5%.
Compound `CN1CCN(CC(=O)N2CCn3c4c(c5cc(C6CCCCC6)ccc53)CCCC42)CC1` (stereo not given) has a displacement of 60.9%.
Work on `CC1(C)Cc2c(sc3nc(-c4ccccc4)oc(=O)c23)CO1` yielded a displacement of -2.5%.
Work on `O=C(CN(c1cccc(Cl)c1)S(=O)(=O)c1ccccc1)N/N=C/c1cccnc1` yielded a displacement of 0.6%.
With `O=C(COc1ccccc1Cl)NCc1cccnc1` the displacement was -0.3%.
In the case of `COc1ccc(Cl)cc1C(=O)Nc1sc2c(c1C(N)=O)CCC(C)C2` (stereo not given), the displacement is reported as 2.4%.
For `COc1ccc(-c2nnc(NC(=O)c3ccc([N+](=O)[O-])c(Cl)c3)s2)cc1`, the displacement was -5.9%.
`COc1ccccc1C1NC(=O)NC(C)=C1C(=O)OC1CCCCCCC1` (stereo not given) was tested, and the displacement was 3.7%.
Compound `COc1ccc(-n2c(O)c(C=Nc3cccc(F)c3)c(=O)[nH]c2=O)cc1` has a displacement of -3.2%.
In the case of `CCOC(=O)c1c(NC(=O)c2cc(Cl)ccc2[N+](=O)[O-])sc(C(=O)N(CC)CC)c1C`, the displacement is reported as -1.1%.
`O=C(Cc1ccc(Cl)cc1)NNS(=O)(=O)c1ccccc1` was tested, and the displacement was 8.3%.
`Cc1cc(Cl)ccc1OC(C)C(=O)Nc1sc2c(c1C(N)=O)CCCC2` (stereo not given) was tested, and the displacement was -5.3%.
Work on `COc1ccc(NC(=O)c2cccc(NC(=O)C(C)(C)C)c2)cc1` yielded a displacement of 1.3%.
`CC(=O)C12CCCCC1CC1C3CC=C4CC(O)CCC4(C)C3CCC12C` (stereo not given) gave a displacement of 4.4%.
`CS(=O)(=O)N1CCN(Cc2ccccc2C(F)(F)F)CC1` was tested, and the displacement was 11%.
Work on `O=c1c(Cc2ccccc2)c(O)nc2n1CCS2` yielded a displacement of -0.4%.
`Cc1ccc(-c2ccc(C=C3C(=O)NC(=O)NC3=O)o2)c(Br)c1` gave a displacement of -9.6%.
`CC(CNC(=O)c1cccs1)c1ccccc1` (stereo not given) showed a displacement of 2.3%.
With `CC(=O)c1c(C)nn2c3ccccc3n(CCN3CCCCC3)c12` the displacement was -3.7%.
For `O=C(Nc1nc(-c2cccc([N+](=O)[O-])c2)cs1)c1ccc(S(=O)(=O)N2CCCC2)cc1`, the displacement was -12.3%.
`N/C(=N\OC(=O)c1ccccc1F)c1ccccc1` was tested, and the displacement was -5.9%.
With `O=C(Oc1ccc([N+](=O)[O-])cc1)c1ccccc1Cl` the displacement was 2.5%.
For `CCOC(=O)c1ccc(NS(=O)(=O)c2cc(-c3nnnn3CC)ccc2OC)cc1`, the displacement was 11.7%.
`Cc1ccc(NC(=S)NC(=O)c2ccccc2Cl)cc1C` was tested, and the displacement was 4.5%.
With `O=[N+]([O-])c1ccc2c(c1)C1C=CCC1C(c1ccc(Cl)cc1)N2` (stereo not given) the displacement was -7.6%.
`C=C(C)COc1ccc2c(-c3ccccc3)cc(=O)oc2c1` showed a displacement of -8.5%.
Compound `Cc1cc2c(cc1C)N(C(=O)CSc1ncn[nH]1)C(C)(C)c1ssc(=S)c1-2` has a displacement of 9.9%.
`CCc1nnc(NC(=O)C(CC)Oc2ccccc2)s1` (stereo not given) showed a displacement of 4%.
With `C=CCOCCN(C)C1=NS(=O)(=O)c2cc([N+](=O)[O-])ccc21` the displacement was -8.7%.
`NNC(=O)CNC(c1ccccc1)c1cc(Br)ccc1NC(=O)CN1CCOCC1` (stereo not given) was tested, and the displacement was -20.8%.
With `O=C(Nc1ccc2c(c1)oc1ccccc12)c1ccc(Cl)cc1Cl` the displacement was 0.7%.
In the case of `CC1CCN(C2=NC(=O)/C(=C/c3ccccc3O)S2)CC1`, the displacement is reported as -12.6%.
For `COc1ccc(/C=N/n2cnnc2SCc2ccccc2)cc1`, the displacement was 3.5%.
Compound `Cc1ccc(-n2nc3ccc(NC(=O)C(C)C)cc3n2)cc1Cl` has a displacement of -10.5%.
`COc1ccccc1C(=O)Nc1ccc(-c2csc(-c3ccccc3)n2)cc1` showed a displacement of 21.2%.
`CC(=O)Nc1ccc(/C(C)=N\NC(=O)CCN2CCCCC2)cc1` gave a displacement of -6.8%.
For `CCOC(=O)c1c(C)oc2cc(Cl)c(O)c(CN(C)C)c12`, the displacement was -3.9%.
`Cc1cccc(N2CC(=O)N/C2=N\c2nc(C)cc(C)n2)c1` showed a displacement of 10.2%.
`COc1cc(C(=S)N2CCOCC2)ccc1OC(C)=O` gave a displacement of 12.7%.
Work on `O=C(Nc1cccc(-c2nc3cc(Cl)ccc3o2)c1)c1ccc2c(c1)OCCO2` yielded a displacement of 105%.
With `Cc1cc(C)n(S(=O)(=O)c2cccc(Cl)c2Cl)n1` the displacement was 12.8%.
`Cn1c(N/N=C\c2cccs2)cc(=O)n(C)c1=O` showed a displacement of -7%.
With `O=C1c2cccc3cc([N+](=O)[O-])cc(c23)C(=O)N1Nc1ccccc1` the displacement was 13%.
Work on `COC(=O)c1ccc(-n2c(C)cc(/C=C3\SC(NC(C)=O)=NC3=O)c2C)cc1` yielded a displacement of 114%.
`COc1ccccc1NC(=O)c1ccccc1NS(=O)(=O)c1ccc(C)cc1` was tested, and the displacement was 10.3%.
Work on `Cc1ccc(C)c(NC(=O)/C=C/c2ccc(Cl)cc2)c1` yielded a displacement of 10.1%.
For `COc1ccc(CC(=O)Nc2ccc(Sc3ccc([N+](=O)[O-])cc3)cc2)cc1OC`, the displacement was 0%.
Compound `O=C(CSc1ncn[nH]1)n1c2ccccc2c2ccccc21` has a displacement of -11.1%.
Work on `COc1cccc(C(=O)NNC(=O)c2ccc(OC)cc2OC)c1` yielded a displacement of 21.4%.
Compound `O=[N+]([O-])c1ccc(O)c(/C=N/Nc2nnc3c(n2)[nH]c2ccccc23)c1` has a displacement of 47.9%.
`O=C(CCNc1n[nH]c(=O)[nH]c1=O)N/N=C/c1ccc(C(F)(F)F)cc1` was tested, and the displacement was -11%.
`COc1ccc(NC(=O)c2ccc(C)c([N+](=O)[O-])c2)cc1OC` was tested, and the displacement was -2.2%.
Work on `COc1ccccc1-c1coc2cc(OC(=O)c3c(Cl)ccc(Cl)c3OC)ccc2c1=O` yielded a displacement of 10.5%.
For `CC(=O)Oc1cc(OC(C)=O)c2c(C)cc(=O)oc2c1`, the displacement was -2.5%.
For `O=C(Nc1cc([N+](=O)[O-])ccc1F)c1ccccc1Br`, the displacement was 13.9%.
Work on `O=C(CN1C(=O)c2ccccc2C1=O)Nc1cc(Cl)ccc1C(=O)O` yielded a displacement of -6.4%.
`O=C(NC(=S)Nc1cccc2ccccc12)c1ccc(Cl)cc1` showed a displacement of -5.1%.
Work on `O=C(c1ccc(F)cc1)N(Cc1ccccc1)c1cccc([N+](=O)[O-])c1` yielded a displacement of 0.4%.
`O=C1/C(=C/c2ccco2)N2CCC1CC2` gave a displacement of 26.9%.
`CCOC(=O)/C(C(=O)Nc1ccc(Br)cc1)=C1\NC(C)(C)Cc2ccccc21` gave a displacement of 4.9%.
With `Cc1ccccc1NCC(=O)N/N=C\c1ccc(I)o1` the displacement was 2.8%.
`CCN(CC)c1ccc(C(=O)Nc2ccccc2Cl)cc1` was tested, and the displacement was 14.9%.
With `O=C(O)C1C2C=CC(C3CC23)C1C(=O)Nc1cccc(Br)c1` (stereo not given) the displacement was -6.5%.
In the case of `COc1c(Cl)cc(C(=O)Nc2ccc(N3CCOCC3)cc2)cc1Cl`, the displacement is reported as 17%.
With `CCOC(=O)C1=C(Nc2ccc(Br)cc2)CC(C)(O)C(C(=O)OCC)C1c1ccccc1` (stereo not given) the displacement was 2.3%.
With `CCCN1c2ccccc2C(=C2SC(C(=O)OC)=C(C(=O)OC)S2)C(=S)C1(C)C` the displacement was 16.5%.
Work on `Cc1cc(=O)oc2cc(OCC(=O)c3ccc(-c4ccccc4)cc3)ccc12` yielded a displacement of -5.9%.
For `Cc1ccc(S(=O)(=O)Nc2ccc(Oc3ccccc3)cc2)cc1[N+](=O)[O-]`, the displacement was 18.6%.
In the case of `O=C(COc1ccc(Cl)cc1Br)NNC(=O)c1ccc(-c2ccccc2)cc1`, the displacement is reported as -4%.
With `Ic1cccc(/C=N/n2cnnc2)c1` the displacement was 8.6%.
`C=CCOc1cccc(/C=C/C(=O)c2ccc(C)cc2)c1` was tested, and the displacement was -5.7%.
Compound `COC(=O)c1ccc(C(=O)OC)c(NC(=O)Cc2ccc(Cl)cc2)c1` has a displacement of 1.3%.
With `Cc1cc(Br)ccc1N1C(=O)c2ccc(-c3nc4ccccc4c(=O)o3)cc2C1=O` the displacement was 8.4%.
In the case of `CN(C)c1ccc(/C=C2/SC(=S)N(Cc3ccccc3)C2=O)cc1`, the displacement is reported as -15.3%.
In the case of `COc1cc(C(=O)NCCC(C)C)c([N+](=O)[O-])cc1OC`, the displacement is reported as 13.8%.
Compound `CCOC(=O)c1c(NC(=O)C2CCCCC2)sc(C(=O)N(CC)CC)c1C` has a displacement of 1.4%.
`Cc1ccsc1-c1ncnn1-c1sc2c(c1C#N)CCCC2` showed a displacement of 10.9%.
`CCN(CC)c1ccc(N2C(=O)/C(=C\c3cccs3)SC2=S)cc1` showed a displacement of 3.4%.
In the case of `Cc1cc(OCC(=O)NCc2ccc3c(c2)OCO3)cc(C)c1Cl`, the displacement is reported as -9.9%.
For `C=CCNC(=O)C1CC(=O)N(c2ccc(Br)cc2)C1` (stereo not given), the displacement was -7.8%.
Compound `COc1ccc(C(O)(C(=O)NCc2ccccc2)c2ccc(OC)cc2)cc1` has a displacement of 1.8%.
Compound `CCN(CC)C(=O)Nc1ccc(Cl)cc1` has a displacement of 2.7%.
Work on `Cc1csc(NC(=O)c2ccco2)n1` yielded a displacement of 9.1%.
Compound `O=C(NNC(=O)c1sc2ccccc2c1Cl)Nc1ccc(Cl)cc1` has a displacement of 7.9%.
`CCCc1ccc(OCCNC(=O)c2ccc(C)cc2)cc1` showed a displacement of 1.8%.
`O=C(CN1C(=O)c2ccccc2C1=O)Nc1cccc2c1C(=O)N(c1ccccc1)C2=O` gave a displacement of -6%.
`CC(C)CN1C(=O)/C(=C/c2cccc(Br)c2)SC1=S` showed a displacement of 9.3%.
Work on `COc1ccc(C(=O)NC(Nc2ccccc2)C(Cl)(Cl)Cl)cc1OC` (stereo not given) yielded a displacement of 0.3%.
`CN(C)Cn1c(O)c(N=NC(=O)c2cccnc2)c2cc(Br)ccc21` gave a displacement of -5.5%.
Compound `COc1ccc2nc(SCC(=O)Nc3ccc(F)cc3)[nH]c2c1` has a displacement of -8.9%.
Work on `O=C1C=C(NCc2ccco2)C2(CCCCC2)O1` yielded a displacement of 10.6%.
`Cc1ccc(-c2cc(-c3ccccc3O)[nH]n2)cc1` was tested, and the displacement was -11.4%.
Compound `Cc1ccc(N2C(=O)NC(=O)/C(=C\c3cc(C)n(C)c3C)C2=O)cc1` has a displacement of 12.6%.
Work on `CCCC1CCc2c(sc(NC(=O)C3c4ccccc4Oc4ccccc43)c2C(N)=O)C1` (stereo not given) yielded a displacement of -1.1%.
Work on `COc1cc(N2Cc3ccc(OC)c(OC)c3C2=O)cc(OC)c1OC` yielded a displacement of 0.1%.
In the case of `Cc1ccc(-c2ccc(C(=O)Nc3ccc([N+](=O)[O-])cc3C)o2)cc1Cl`, the displacement is reported as 0.4%.
Compound `COCCOC(=O)c1c(C)oc2c1cc(NS(=O)(=O)c1ccc(F)cc1)c1ccccc12` has a displacement of 18%.
With `O=C(c1coc2ccc(O)c(CN3CCCCC3)c12)C1CC1` the displacement was 11%.
With `CC(C)=C1C2CCC1C(C(=O)NC1CCCCC1)C2C(=O)O` (stereo not given) the displacement was -8.3%.
With `COc1ccc(N(CC(=O)N/N=C\c2ccccc2O)S(=O)(=O)c2ccc(C)c([N+](=O)[O-])c2)cc1` the displacement was -4%.
In the case of `CCOc1ccccc1N(CC(=O)NCCCOC)S(=O)(=O)c1ccccc1`, the displacement is reported as 2.9%.
`O=C(c1cccnc1)N(Cc1ccccc1)Cc1ccccc1` was tested, and the displacement was 6%.
For `O=[N+]([O-])c1ccc(-c2nc(NCc3ccccc3)cc(-c3ccccc3)n2)cc1`, the displacement was 7%.
